± gives the standard deviation of the averaged measurements. This is one part of the list.
B1: VDAC2; numbered along this chain (parent)
chain: MATHGQTCARPMCIPPSYADLGKAARDIFNKGFGFGLVKLDVKTKSCSGVEFSTSGSSNTDTGKVTGTLETKYKWCEYGLTFTEKWNTDNTLGTEIAIEDQICQGLKLTFDTTFSPNTGKKSGKIKSSYKRECINLGCDVDFDFAGPAIHGSAVFGYEGWLAGYQMTFDSAKSKLTRNNFAVGYRTGDFQLHTNVNDGTEFGGSIYQKVCEDLDTSVNLAWTSGTNCTRFGIAAKYQLDPTASISAKVNNSSLIGVGYTQTLRPGVKLTLSALVDGKSINAGGHKVGLALELEA

Variants of: B1
Assay: log2 fold difference of barcode abundance, GFP-BAK-high vs GFP-BAK-low sorted fraction (log2 ratio); higher = VDAC2 variant stabilises more GFP-BAK at mitochondria
Conditions: with BAK1 (mouse, GFP-tagged), Mcl1-/- Bax-/- Bak-/- Vdac2-/- MEF + GFP-mBAK
Description: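 Deep mutational scan of human VDAC2 (FLAG-tagged) with single amino acid substitutions at positions Q165–F180 (β10–11 loop), each barcoded clone expressed by retrovirus in Mcl1/Bax/Bak/Vdac2-deficient MEFs that also express GFP-tagged mouse BAK. Cells were sorted into GFP-high and GFP-low fractions and barcodes counted by Illumina sequencing. The score is log2(CPM) in GFP-BAK-high minus log2(CPM) in GFP-BAK-low, per barcode; barcodes of the same variant are averaged. It reports BAK recruitment and stabilisation at the mitochondrial outer membrane.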
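Note: sorting relied on GFP fluorescence, which stays low in these cells lacking VDAC2 and climbs sharply once wild-type VDAC2 is expressed.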

Variant | log2 fold difference
MATHGQTCARPMCIPPSYADLGKAARDIFNKGFGFGLVKLDVKTKSCSGVEFSTSGSSNTDTGKVTGTLETKYKWCEYGLTFTEKWNTDNTLGTEIAIEDQICQGLKLTFDTTFSPNTGKKSGKIKSSYKRECINLGCDVDFDFAGPAIHGSAVFGYEGWLAGYQMTFDSAKSKLRRNNFAVGYRTGDFQLHTNVNDGTEFGGSIYQKVCEDLDTSVNLAWTSGTNCTRFGIAAKYQLDPTASISAKVNNSSLIGVGYTQTLRPGVKLTLSALVDGKSINAGGHKVGLALELEA [T176R] | -0.506 ± 0.71
MATHGQTCARPMCIPPSYADLGKAARDIFNKGFGFGLVKLDVKTKSCSGVEFSTSGSSNTDTGKVTGTLETKYKWCEYGLTFTEKWNTDNTLGTEIAIEDQICQGLKLTFDTTFSPNTGKKSGKIKSSYKRECINLGCDVDFDFAGPAIHGSAVFGYEGWLAGYQMQFDSAKSKLTRNNFAVGYRTGDFQLHTNVNDGTEFGGSIYQKVCEDLDTSVNLAWTSGTNCTRFGIAAKYQLDPTASISAKVNNSSLIGVGYTQTLRPGVKLTLSALVDGKSINAGGHKVGLALELEA [T167Q] | -0.634 ± 0.49
MATHGQTCARPMCIPPSYADLGKAARDIFNKGFGFGLVKLDVKTKSCSGVEFSTSGSSNTDTGKVTGTLETKYKWCEYGLTFTEKWNTDNTLGTEIAIEDQICQGLKLTFDTTFSPNTGKKSGKIKSSYKRECINLGCDVDFDFAGPAIHGSAVFGYEGWLAGYQMTFFSAKSKLTRNNFAVGYRTGDFQLHTNVNDGTEFGGSIYQKVCEDLDTSVNLAWTSGTNCTRFGIAAKYQLDPTASISAKVNNSSLIGVGYTQTLRPGVKLTLSALVDGKSINAGGHKVGLALELEA [D169F] | -0.427 ± 1.1
MATHGQTCARPMCIPPSYADLGKAARDIFNKGFGFGLVKLDVKTKSCSGVEFSTSGSSNTDTGKVTGTLETKYKWCEYGLTFTEKWNTDNTLGTEIAIEDQICQGLKLTFDTTFSPNTGKKSGKIKSSYKRECINLGCDVDFDFAGPAIHGSAVFGYEGWLAGYQMTFDSAYSKLTRNNFAVGYRTGDFQLHTNVNDGTEFGGSIYQKVCEDLDTSVNLAWTSGTNCTRFGIAAKYQLDPTASISAKVNNSSLIGVGYTQTLRPGVKLTLSALVDGKSINAGGHKVGLALELEA [K172Y] | 0.569 ± 1.1
MATHGQTCARPMCIPPSYADLGKAARDIFNKGFGFGLVKLDVKTKSCSGVEFSTSGSSNTDTGKVTGTLETKYKWCEYGLTFTEKWNTDNTLGTEIAIEDQICQGLKLTFDTTFSPNTGKKSGKIKSSYKRECINLGCDVDFDFAGPAIHGSAVFGYEGWLAGYQMTFDSAKSKLTRNNQAVGYRTGDFQLHTNVNDGTEFGGSIYQKVCEDLDTSVNLAWTSGTNCTRFGIAAKYQLDPTASISAKVNNSSLIGVGYTQTLRPGVKLTLSALVDGKSINAGGHKVGLALELEA [F180Q] | -0.926 ± 0.43
MATHGQTCARPMCIPPSYADLGKAARDIFNKGFGFGLVKLDVKTKSCSGVEFSTSGSSNTDTGKVTGTLETKYKWCEYGLTFTEKWNTDNTLGTEIAIEDQICQGLKLTFDTTFSPNTGKKSGKIKSSYKRECINLGCDVDFDFAGPAIHGSAVFGYEGWLAGYQMTFDSAKSKLERNNFAVGYRTGDFQLHTNVNDGTEFGGSIYQKVCEDLDTSVNLAWTSGTNCTRFGIAAKYQLDPTASISAKVNNSSLIGVGYTQTLRPGVKLTLSALVDGKSINAGGHKVGLALELEA [T176E] | 0.331 ± 1.3
MATHGQTCARPMCIPPSYADLGKAARDIFNKGFGFGLVKLDVKTKSCSGVEFSTSGSSNTDTGKVTGTLETKYKWCEYGLTFTEKWNTDNTLGTEIAIEDQICQGLKLTFDTTFSPNTGKKSGKIKSSYKRECINLGCDVDFDFAGPAIHGSAVFGYEGWLAGYQMTFDSHKSKLTRNNFAVGYRTGDFQLHTNVNDGTEFGGSIYQKVCEDLDTSVNLAWTSGTNCTRFGIAAKYQLDPTASISAKVNNSSLIGVGYTQTLRPGVKLTLSALVDGKSINAGGHKVGLALELEA [A171H] | 0.461 ± 0.74
MATHGQTCARPMCIPPSYADLGKAARDIFNKGFGFGLVKLDVKTKSCSGVEFSTSGSSNTDTGKVTGTLETKYKWCEYGLTFTEKWNTDNTLGTEIAIEDQICQGLKLTFDTTFSPNTGKKSGKIKSSYKRECINLGCDVDFDFAGPAIHGSAVFGYEGWLAGYQMTFDSAVSKLTRNNFAVGYRTGDFQLHTNVNDGTEFGGSIYQKVCEDLDTSVNLAWTSGTNCTRFGIAAKYQLDPTASISAKVNNSSLIGVGYTQTLRPGVKLTLSALVDGKSINAGGHKVGLALELEA [K172V] | 0.257 ± 1
MATHGQTCARPMCIPPSYADLGKAARDIFNKGFGFGLVKLDVKTKSCSGVEFSTSGSSNTDTGKVTGTLETKYKWCEYGLTFTEKWNTDNTLGTEIAIEDQICQGLKLTFDTTFSPNTGKKSGKIKSSYKRECINLGCDVDFDFAGPAIHGSAVFGYEGWLAGYMMTFDSAKSKLTRNNFAVGYRTGDFQLHTNVNDGTEFGGSIYQKVCEDLDTSVNLAWTSGTNCTRFGIAAKYQLDPTASISAKVNNSSLIGVGYTQTLRPGVKLTLSALVDGKSINAGGHKVGLALELEA [Q165M] | 0.712 ± 0.44
MATHGQTCARPMCIPPSYADLGKAARDIFNKGFGFGLVKLDVKTKSCSGVEFSTSGSSNTDTGKVTGTLETKYKWCEYGLTFTEKWNTDNTLGTEIAIEDQICQGLKLTFDTTFSPNTGKKSGKIKSSYKRECINLGCDVDFDFAGPAIHGSAVFGYEGWLAGYQMTSDSAKSKLTRNNFAVGYRTGDFQLHTNVNDGTEFGGSIYQKVCEDLDTSVNLAWTSGTNCTRFGIAAKYQLDPTASISAKVNNSSLIGVGYTQTLRPGVKLTLSALVDGKSINAGGHKVGLALELEA [F168S] | -0.831 ± 0.66
MATHGQTCARPMCIPPSYADLGKAARDIFNKGFGFGLVKLDVKTKSCSGVEFSTSGSSNTDTGKVTGTLETKYKWCEYGLTFTEKWNTDNTLGTEIAIEDQICQGLKLTFDTTFSPNTGKKSGKIKSSYKRECINLGCDVDFDFAGPAIHGSAVFGYEGWLAGYQMLFDSAKSKLTRNNFAVGYRTGDFQLHTNVNDGTEFGGSIYQKVCEDLDTSVNLAWTSGTNCTRFGIAAKYQLDPTASISAKVNNSSLIGVGYTQTLRPGVKLTLSALVDGKSINAGGHKVGLALELEA [T167L] | -0.514 ± 0.92
MATHGQTCARPMCIPPSYADLGKAARDIFNKGFGFGLVKLDVKTKSCSGVEFSTSGSSNTDTGKVTGTLETKYKWCEYGLTFTEKWNTDNTLGTEIAIEDQICQGLKLTFDTTFSPNTGKKSGKIKSSYKRECINLGCDVDFDFAGPAIHGSAVFGYEGWLAGYNMTFDSAKSKLTRNNFAVGYRTGDFQLHTNVNDGTEFGGSIYQKVCEDLDTSVNLAWTSGTNCTRFGIAAKYQLDPTASISAKVNNSSLIGVGYTQTLRPGVKLTLSALVDGKSINAGGHKVGLALELEA [Q165N] | 0.281 ± 1.4
MATHGQTCARPMCIPPSYADLGKAARDIFNKGFGFGLVKLDVKTKSCSGVEFSTSGSSNTDTGKVTGTLETKYKWCEYGLTFTEKWNTDNTLGTEIAIEDQICQGLKLTFDTTFSPNTGKKSGKIKSSYKRECINLGCDVDFDFAGPAIHGSAVFGYEGWLAGYQMTFDSMKSKLTRNNFAVGYRTGDFQLHTNVNDGTEFGGSIYQKVCEDLDTSVNLAWTSGTNCTRFGIAAKYQLDPTASISAKVNNSSLIGVGYTQTLRPGVKLTLSALVDGKSINAGGHKVGLALELEA [A171M] | 1.1 ± 0.63
MATHGQTCARPMCIPPSYADLGKAARDIFNKGFGFGLVKLDVKTKSCSGVEFSTSGSSNTDTGKVTGTLETKYKWCEYGLTFTEKWNTDNTLGTEIAIEDQICQGLKLTFDTTFSPNTGKKSGKIKSSYKRECINLGCDVDFDFAGPAIHGSAVFGYEGWLAGYQMTADSAKSKLTRNNFAVGYRTGDFQLHTNVNDGTEFGGSIYQKVCEDLDTSVNLAWTSGTNCTRFGIAAKYQLDPTASISAKVNNSSLIGVGYTQTLRPGVKLTLSALVDGKSINAGGHKVGLALELEA [F168A] | -0.327 ± 1.1
MATHGQTCARPMCIPPSYADLGKAARDIFNKGFGFGLVKLDVKTKSCSGVEFSTSGSSNTDTGKVTGTLETKYKWCEYGLTFTEKWNTDNTLGTEIAIEDQICQGLKLTFDTTFSPNTGKKSGKIKSSYKRECINLGCDVDFDFAGPAIHGSAVFGYEGWLAGYQMTFDSAKSKLTRNNLAVGYRTGDFQLHTNVNDGTEFGGSIYQKVCEDLDTSVNLAWTSGTNCTRFGIAAKYQLDPTASISAKVNNSSLIGVGYTQTLRPGVKLTLSALVDGKSINAGGHKVGLALELEA [F180L] | -0.0235 ± 0.79
MATHGQTCARPMCIPPSYADLGKAARDIFNKGFGFGLVKLDVKTKSCSGVEFSTSGSSNTDTGKVTGTLETKYKWCEYGLTFTEKWNTDNTLGTEIAIEDQICQGLKLTFDTTFSPNTGKKSGKIKSSYKRECINLGCDVDFDFAGPAIHGSAVFGYEGWLAGYQHTFDSAKSKLTRNNFAVGYRTGDFQLHTNVNDGTEFGGSIYQKVCEDLDTSVNLAWTSGTNCTRFGIAAKYQLDPTASISAKVNNSSLIGVGYTQTLRPGVKLTLSALVDGKSINAGGHKVGLALELEA [M166H] | -0.812
MATHGQTCARPMCIPPSYADLGKAARDIFNKGFGFGLVKLDVKTKSCSGVEFSTSGSSNTDTGKVTGTLETKYKWCEYGLTFTEKWNTDNTLGTEIAIEDQICQGLKLTFDTTFSPNTGKKSGKIKSSYKRECINLGCDVDFDFAGPAIHGSAVFGYEGWLAGYRMTFDSAKSKLTRNNFAVGYRTGDFQLHTNVNDGTEFGGSIYQKVCEDLDTSVNLAWTSGTNCTRFGIAAKYQLDPTASISAKVNNSSLIGVGYTQTLRPGVKLTLSALVDGKSINAGGHKVGLALELEA [Q165R] | 0.305 ± 0.69
MATHGQTCARPMCIPPSYADLGKAARDIFNKGFGFGLVKLDVKTKSCSGVEFSTSGSSNTDTGKVTGTLETKYKWCEYGLTFTEKWNTDNTLGTEIAIEDQICQGLKLTFDTTFSPNTGKKSGKIKSSYKRECINLGCDVDFDFAGPAIHGSAVFGYEGWLAGYQMTFDSAKSKLTRNRFAVGYRTGDFQLHTNVNDGTEFGGSIYQKVCEDLDTSVNLAWTSGTNCTRFGIAAKYQLDPTASISAKVNNSSLIGVGYTQTLRPGVKLTLSALVDGKSINAGGHKVGLALELEA [N179R] | 0.216 ± 0.89
MATHGQTCARPMCIPPSYADLGKAARDIFNKGFGFGLVKLDVKTKSCSGVEFSTSGSSNTDTGKVTGTLETKYKWCEYGLTFTEKWNTDNTLGTEIAIEDQICQGLKLTFDTTFSPNTGKKSGKIKSSYKRECINLGCDVDFDFAGPAIHGSAVFGYEGWLAGYQMTFDSAKSKLSRNNFAVGYRTGDFQLHTNVNDGTEFGGSIYQKVCEDLDTSVNLAWTSGTNCTRFGIAAKYQLDPTASISAKVNNSSLIGVGYTQTLRPGVKLTLSALVDGKSINAGGHKVGLALELEA [T176S] | 0.263 ± 0.8
MATHGQTCARPMCIPPSYADLGKAARDIFNKGFGFGLVKLDVKTKSCSGVEFSTSGSSNTDTGKVTGTLETKYKWCEYGLTFTEKWNTDNTLGTEIAIEDQICQGLKLTFDTTFSPNTGKKSGKIKSSYKRECINLGCDVDFDFAGPAIHGSAVFGYEGWLAGYQMTIDSAKSKLTRNNFAVGYRTGDFQLHTNVNDGTEFGGSIYQKVCEDLDTSVNLAWTSGTNCTRFGIAAKYQLDPTASISAKVNNSSLIGVGYTQTLRPGVKLTLSALVDGKSINAGGHKVGLALELEA [F168I] | -0.0402 ± 1.3
